Assay results: PubChem BioAssay AID1347165 (National Center for Advancing Translational Sciences (NCATS), 2019)
Hit rate of the full screen: of about 220,000 compounds, about 5,700 (2.6%) were called active. Inconclusive results, whose numbers are uncertain, are shown with a selection of clear calls. Calls come from the whole dose curve; as a rule, active = well fitted inhibition curve with a large enough effect; inconclusive = small, poorly fitted or top-dose-only effect; inactive = no such curve, though single readings can be large or run the other way. A potency beside an inconclusive call is a rough fit, not a confirmed value.

The molecules below were run against Lysine-specific demethylase 5B (Homo sapiens) (UniProt Q9UGL1) (assay: Primary screen for KDM5B Histone Demethylases FDH-coupled qHTS). Settings: FDH-coupled NADH fluorescence (FDH is formaldehyde dehydrogenase); activity change, negative = inhibition: at 57.7 µM (top of the series) unless noted.
Chain of UniProt Q9UGL1 (Q9UGL1 whole entry, looked up): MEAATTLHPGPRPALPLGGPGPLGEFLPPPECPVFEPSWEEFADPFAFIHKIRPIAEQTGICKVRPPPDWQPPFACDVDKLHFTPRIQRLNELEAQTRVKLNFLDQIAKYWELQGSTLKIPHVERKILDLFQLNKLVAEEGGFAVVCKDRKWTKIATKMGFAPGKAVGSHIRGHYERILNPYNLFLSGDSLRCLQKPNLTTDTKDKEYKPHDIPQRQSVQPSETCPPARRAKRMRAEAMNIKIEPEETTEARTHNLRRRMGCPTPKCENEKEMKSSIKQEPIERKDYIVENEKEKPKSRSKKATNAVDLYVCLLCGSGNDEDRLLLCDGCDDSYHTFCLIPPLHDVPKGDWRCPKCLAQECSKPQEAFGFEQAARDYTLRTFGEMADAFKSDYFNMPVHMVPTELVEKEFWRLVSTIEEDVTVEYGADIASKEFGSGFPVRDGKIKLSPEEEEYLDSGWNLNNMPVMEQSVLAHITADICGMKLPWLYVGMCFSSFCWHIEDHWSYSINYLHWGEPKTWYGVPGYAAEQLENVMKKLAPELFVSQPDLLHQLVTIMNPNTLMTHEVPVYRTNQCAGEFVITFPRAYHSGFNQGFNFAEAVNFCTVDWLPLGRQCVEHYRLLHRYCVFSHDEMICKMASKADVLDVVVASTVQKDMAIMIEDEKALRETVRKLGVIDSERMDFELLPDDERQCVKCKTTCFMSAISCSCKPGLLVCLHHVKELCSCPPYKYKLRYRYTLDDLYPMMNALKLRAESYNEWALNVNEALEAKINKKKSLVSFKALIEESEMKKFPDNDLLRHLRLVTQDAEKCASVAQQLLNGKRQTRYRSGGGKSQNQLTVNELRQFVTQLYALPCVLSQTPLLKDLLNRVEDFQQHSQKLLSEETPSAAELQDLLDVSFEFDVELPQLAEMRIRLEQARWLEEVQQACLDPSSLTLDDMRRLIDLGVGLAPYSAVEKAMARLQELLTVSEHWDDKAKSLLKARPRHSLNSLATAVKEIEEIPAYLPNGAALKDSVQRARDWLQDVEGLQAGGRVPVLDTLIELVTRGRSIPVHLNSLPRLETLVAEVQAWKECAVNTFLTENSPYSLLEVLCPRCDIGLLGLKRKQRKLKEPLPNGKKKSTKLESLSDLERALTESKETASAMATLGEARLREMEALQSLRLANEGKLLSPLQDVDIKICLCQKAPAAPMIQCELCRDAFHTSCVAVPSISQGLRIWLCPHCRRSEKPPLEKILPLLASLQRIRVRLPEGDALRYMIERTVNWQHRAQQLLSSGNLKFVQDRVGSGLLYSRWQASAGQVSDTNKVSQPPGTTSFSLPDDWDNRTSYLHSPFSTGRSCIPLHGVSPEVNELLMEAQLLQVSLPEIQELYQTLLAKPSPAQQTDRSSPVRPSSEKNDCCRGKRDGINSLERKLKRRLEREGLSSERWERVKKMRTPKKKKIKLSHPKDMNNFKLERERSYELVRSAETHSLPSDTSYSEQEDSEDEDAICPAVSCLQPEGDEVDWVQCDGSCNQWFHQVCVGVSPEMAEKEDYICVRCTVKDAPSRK
Method in brief: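 Here, H3K4me3 peptide (12.5 µM in substrate mix) is demethylated by KDM5BΔAP, 200 nM final, after 10 min compound exposure. Formaldehyde product is coupled through FDH (0.25 U/mL in mix) to NADH fluorescence; 30-min ΔRFU feeds dose-response curves.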
Note: nearly all actives have a fitted effect of over 70% in size.
Potency is the fitted concentration of half-maximal effect; tags give direction and shape of the fitted curve.
Throughout, for activity change, negative = inhibition: 0% is about no effect.

Row | Structure (SMILES) | activity change, negative = inhibition | Potency
1 | COC(=O)C(NC(=O)Nc1ccccc1)C12CC3CC(CC(C3)C1)C2 (centres undefined) | inactive: 23.7% | 
2 | O=C(Nc1ccccc1F)c1oc2ccccc2c1NC(=O)c1c(F)cccc1F |  | inconclusive: 35.5 µM [inhibitor, partial curve, poor fit]
3 | COc1ccc(NC(=O)c2ccc(Cn3ccn4nc5c(c4c3=O)CCCC5)cc2)cc1OC | inactive: -24.5% | 
4 | CCOc1ccc2oc(C(=O)OCC(=O)N3C(C)CCCC3C)c(C)c2c1 (centres undefined) |  | inconclusive: 25.1 µM [inhibitor, partial curve, poor fit]
5 | CN(C(=O)c1cc2nc(-c3ccc4c(c3)OCO4)cc(C(F)(F)F)n2n1)c1ccc(OC(F)(F)F)cc1 |  | inconclusive: 0.631 µM [inhibitor, full curve, poor fit]
6 | Cn1nc(C(=O)NCCc2ccc(Cl)cc2)c2c1-c1ccccc1SC2 |  | inconclusive: 25.1 µM [inhibitor, partial curve, poor fit]
7 | O=[S+]([O-])(c1ccc(Br)cc1)c1nnn2c1nc(N1CCCCC1)c1ccccc12 |  | inconclusive: 7.08 µM [inhibitor, partial curve, poor fit]
8 | CCCCCCCCSCCCCC(=O)O | inactive: 4.79% | 
9 | CCOc1ccc(-c2cc3ccccc3[nH]2)cc1 | inactive: -26.3% | 
10 | c1c(-c2nc(C3CCOC3)no2)sc2c1CCCC2 (centres undefined) |  | inconclusive: 17.8 µM [inhibitor, single point]
11 | COc1ccc(N2C(N)=C(C#N)C(c3cc(CN4CCOCC4)cs3)C3=C2CCCC3=O)cc1 (centres undefined) |  | inconclusive: 12.6 µM [inhibitor, partial curve, poor fit]
12 | Cc1nc2c(C(=O)NCCc3ccc(Cl)cc3)cnn2c(C)c1Cc1ccc(F)cc1 |  | inconclusive: 35.5 µM [inhibitor, partial curve, poor fit]
13 | O=C(c1cc2ccccc2[nH]1)N1CCN(C(=O)C2CC2)CC1 | inactive: 7.59% | 
14 | Cn1c(=O)c2[nH]c(N3CCN(C(=O)C4CC4)CC3)nc2n(C)c1=O | inactive: 3.86% | 
15 | O=C(O)c1cccc(-c2ccc(F)cc2)c1 | inactive: -6.61% | 
16 | Cn1nc(C(=O)N2CCCN(C(=O)C3CC3)C(c3ccccc3)CC(=O)NCC2)c2ccccc21 (centres undefined) |  | inconclusive: 25.1 µM [inhibitor, partial curve, poor fit]
17 | C/C(=N/NC(N)=S)C1CC2CCC1C2 (centres undefined) |  | inconclusive: 17.8 µM [inhibitor, partial curve, poor fit]
18 | O=C(O)C1(n2cnc3ccccc32)CCN(c2nc3ccccc3s2)CC1 | inactive: 8.85% | 
19 | CC(C)CCn1c(=O)[nH]c(=O)c2c3c(cnc21)C(=O)CC(c1ccc(F)cc1)C3 (centres undefined) |  | inconclusive: 39.8 µM [inhibitor, single point]
